Screen size: about 43,000 compounds; about 200 (0.47%) were called active. Another 12% or so got no clear call; they are omitted. Calls come from the whole dose curve; as a rule, active = well fitted cell-killing curve with a large enough effect; inconclusive = small, poorly fitted or top-dose-only effect, or effect the other way; inactive = flat fitted curve, though single readings scatter. This is one part of the list.
% is set by controls: 0 for no effect and ±100 for the full control effect.

The assay can be described thus: Cell viability qHTS assay in S16 Pmp22-F2sN cells. Note: nearly all actives have a fitted effect of over 65% in size. Particulars: S16 Pmp22-F2sN Schwann cells (luciferase reporters placed in the Pmp22 gene) viability, CellTiter-Glo, 24 h; series mostly up to 57.5 µM; activity change, negative = cytotoxicity: at the top concentration. The method in brief:
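CellTiter-Glo counter-screen, qHTS, 1536-well. Cells: S16(c9) Pmp22-F2sN, 500-1,000/well in DMEM + 10% FBS. Cpd 23 nL pin transfer, 24 h, 37C/5% CO2. Read: luminescence, CCD imager.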
(In general: qHTS replaces the single test concentration by a dilution series.)
As for `CC(=O)c1ccc(NC(=O)Cn2c(=O)oc3cc(S(=O)(=O)N4CCCCC4)ccc32)cc1`, the “activity change, negative = cytotoxicity” value is inactive: 0.617%. Turning to `CC1=C(c2ccc(C)cc2)S(=O)(=O)N(Cc2ccc(C(=O)NCc3ccccc3F)cc2)C1=O`, the “activity change, negative = cytotoxicity” value is inactive: -8.34%.

In the case of `O=S(=O)(NCCc1cn2ccsc2n1)c1ccc(Cl)cc1`, the “activity change, negative = cytotoxicity” value was inactive: 7.32%.

On to `O=C(CN1C(=O)COc2ccc(S(=O)(=O)N3CCOCC3)cc21)N1CCN(c2ccc(Cl)cc2)CC1`, for which the “activity change, negative = cytotoxicity” value was inactive: 23.7%. For the compound `CCCCCCc1cc2cc(-c3cn4c(n3)sc3cc(OC)ccc34)c(=O)oc2cc1O`, the “activity change, negative = cytotoxicity” value was inactive: 7.55%. Take `CCOC(=O)c1cc2c(=O)n3ccccc3nc2n(Cc2ccco2)c1=NC(=O)c1ccc(F)cc1`: the “activity change, negative = cytotoxicity” value was inactive: -27.5%.

For the compound `O=C(CCCn1c(=O)[nH]c2ccccc2c1=O)N1CCN(c2ccccc2)CC1`, the “activity change, negative = cytotoxicity” value is inactive: -1.87%.

Take `Cc1cc(C)c(/C=C/c2onc(C)c2S(=O)(=O)N2CCC(C(=O)Nc3ccc(Cl)cc3C)CC2)c(C)c1`: the “activity change, negative = cytotoxicity” value was inactive: 1.18%. Under `O=C(COCc1cc(-c2cccs2)on1)NCc1cccc(Cl)c1` stands inactive: 13.9%; under `COc1cc(NC(=O)c2nn(-c3ccc(F)cc3)c(=O)n(C)c2=O)cc(OC)c1OC`, inactive: -23.6%. Turning to `CCn1c(C(=O)N2CCC(C(=O)NCCCOC)CC2)cc2sccc21`, the “activity change, negative = cytotoxicity” value is inactive: 4.91%. Consider `Cc1cn(S(=O)(=O)c2ccc(F)c(Cl)c2)cn1`, for which the “activity change, negative = cytotoxicity” value is inactive: 15.4%. `O=C(Cn1c(=O)n(CCc2ccccc2)c(=O)c2c3c(sc21)CCCC3)Nc1ccc(F)c(F)c1`: the “activity change, negative = cytotoxicity” value was inactive: 14.4%.

Turning to `Brc1ccc(CN2CCc3nc(N4CCN(c5ncccn5)CC4)ncc3C2)cc1`, the “activity change, negative = cytotoxicity” value was inactive: -2.3%. For `CCCc1nnc(NC(=O)Cc2coc3ccc(C)cc23)s1`, the “activity change, negative = cytotoxicity” value was inactive: -5.29%. On to `COc1ccc(NC(=O)CSc2nc3c(c(=O)[nH]2)CCC3)cc1`, for which the “activity change, negative = cytotoxicity” value is inactive: 3.96%.

In the case of `CCC1CCc2nc3sc(C(=O)Nc4ccc(F)c(F)c4)c(N)c3cc2C1` (stereo not drawn), the “activity change, negative = cytotoxicity” value was inactive: 9.46%. As to `CCOC(=O)c1c(C)c(C(=O)NCc2ccc(Cl)cc2)c(C)n1CC`, the “activity change, negative = cytotoxicity” value was inactive: -0.424%.

On to `CC(C)c1ccccc1Oc1c(C(F)(F)F)oc2c(CN3CCN(C)CC3)c(O)ccc2c1=O`, for which the “activity change, negative = cytotoxicity” value was inactive: -22.9%. Take `COc1ccc(NCc2cc3ccc(OC)cc3n(CC(=O)Nc3cccc(OC)c3)c2=O)cc1`: the “activity change, negative = cytotoxicity” value is inactive: -0.0788%. As to `Cc1ccc(CNC(=O)c2cn(C)c3ccc(S(=O)(=O)N4CCOCC4)cc3c2=O)cc1`, the “activity change, negative = cytotoxicity” value was inactive: 4.77%. Under `CCOc1ccc(-c2nc(CNC(=O)Nc3ccccc3)c(C)o2)cc1` stands inactive: 0.806%.

`COc1ccccc1N1CCN(C(=O)c2cc3c(=O)oc4ccc(C)cc4c3s2)CC1`: the “activity change, negative = cytotoxicity” value is inactive: -3.35%. For `Cc1ccccc1NC(=O)CSc1nc2ccccc2c2nc(CCn3c(C)nc4ccccc43)nn12`, the “activity change, negative = cytotoxicity” value was inactive: 3.56%. The result for `COC(=O)c1c(NC(=O)COc2c(C)ccc(C)c2C)sc2c1CCC(C)C2` (stereo not drawn) reads inactive: -2.13%; that for `CC1=C(C(=O)Nc2cccnc2)C(c2ccc(Cl)cc2)n2nc(SCc3ccccc3)nc2N1` (stereo not drawn), inactive: 0.465%; that for `CCCN1CCN(c2ncnc3sc(C(=O)Nc4cccc(Cl)c4C)c(C)c23)CC1`, inactive: 1.46%. Take `CCN(CC)c1cc2c(cc1F)c(=O)c(S(=O)(=O)c1ccc(C)cc1)cn2Cc1ccc(F)cc1`: the “activity change, negative = cytotoxicity” value is inactive: 0.236%.

As to `CCOc1ccc(NC(=O)[C@H](Cc2ccccc2)N2Cc3ccccc3C2=O)cc1`, the “activity change, negative = cytotoxicity” value is inactive: 0.709%. As for `O=C(Cn1ncc2ccsc2c1=O)N1CCN(c2ccccc2)CC1`, the “activity change, negative = cytotoxicity” value was inactive: 1.1%. On to `CCCSc1nc2c(c(=O)[nH]1)C(c1ccc(F)cc1F)CC(=O)N2` (stereo not drawn), for which the “activity change, negative = cytotoxicity” value is inactive: -8.86%. As for `CC(=O)N1CCC(N(Cc2ccco2)C(=O)Nc2ccc(Br)cc2F)CC1`, the “activity change, negative = cytotoxicity” value was inactive: -6.87%.

With `O=C(CC1N=C2c3ccccc3N=C(SCc3ccccc3Cl)N2C1=O)NCc1cccs1` (stereo not drawn), the “activity change, negative = cytotoxicity” value is inactive: 3.41%. For the compound `COc1ccc(C(=O)NNc2ncnc3c2cnn3-c2ccccc2)cc1`, the “activity change, negative = cytotoxicity” value was inactive: -2.67%.

As to `CCOC(=O)C1CCCN(Cc2cn3c(-c4ccc(Br)cc4)nnc3s2)C1` (stereo not drawn), the “activity change, negative = cytotoxicity” value is inactive: 1.85%. On to `CCOc1ccc(NC(=O)Cc2ccc(-n3c(C)nc4cccnc43)cc2)cc1`, for which the “activity change, negative = cytotoxicity” value is inactive: 0.707%.

Turning to `CN(C(=O)c1ccc2c(c1)N(Cc1ccccc1F)C(=O)c1ccccc1S2(=O)=O)C1CCCCC1`, the “activity change, negative = cytotoxicity” value is inactive: 14.1%. Regarding `O=C(Nc1cc(Cl)ccc1Cl)c1cc(S(=O)(=O)N2CCCc3ccccc32)ccc1F`, the “activity change, negative = cytotoxicity” value is inactive: -9.98%. For `COC(=O)c1ccccc1NC(=O)CCc1c(C)nc2c(c(C)nn2-c2ccccc2)c1C`, the “activity change, negative = cytotoxicity” value was inactive: -2.79%. For the compound `COc1ccc(Cn2ccc3nc(C)c(C(=O)NCc4ccc(OC)cc4OC)cc3c2=O)cc1`, the “activity change, negative = cytotoxicity” value was inactive: 2.98%. In the case of `COc1cccc(CNC(=O)CCCn2nc(C)n3c(cc4sccc43)c2=O)c1`, the “activity change, negative = cytotoxicity” value was inactive: 3.61%. For `COc1ccc(C2CC(=O)c3c([nH]c(C(=O)OC4CCCCCC4)c3C)C2)cc1OC` (stereo not drawn), the “activity change, negative = cytotoxicity” value is inactive: 25.1%. In the case of `COc1ccc(-n2nnc(-c3nc(-c4ccccc4C)no3)c2N)cc1Cl`, the “activity change, negative = cytotoxicity” value was inactive: -0.333%. For `O=C(Cn1ncc2c([nH]c3ccccc32)c1=O)NCc1cccc(Cl)c1`, the “activity change, negative = cytotoxicity” value was inactive: -1.17%. The result for `CCOC(=O)c1cnc2c(C)cc(Cl)cc2c1NCCc1ccc(OC)c(OC)c1` reads inactive: 8.23%; that for `CCOC(=O)c1cc(-c2ccc(F)cc2)n(CCC(=O)NCc2ccccc2OC)c1C`, inactive: -20.6%; that for `COc1ccc(NC(=O)C(C)n2c(C)c3cnn(-c4ccccc4)c(=O)c3c2C)cc1Cl` (stereo not drawn), inactive: 3.93%.

As for `Cc1cccc(OCC(=O)N(Cc2ccc(C(C)C)cc2)Cc2ccco2)c1C`, the “activity change, negative = cytotoxicity” value is inactive: -22%.
